In PubChem BioAssay AID1671194 (National Center for Advancing Translational Sciences (NCATS), 2021):
Among all 140,000 compounds or so, about 240 (0.17%) were called active. The inconclusive results got no clear call from the source; some entries with a clear call stand among them for comparison. Calls follow the shape of the dose curve; as a rule, active = well fitted inhibition curve with a large enough effect; inconclusive = small, poorly fitted or top-dose-only effect; inactive = no such curve, though single readings can be large or run the other way. A potency beside an inconclusive call is a rough fit, not a confirmed value.

experiment: Primary qHTS assay for inhibitors of alpha-synuclein gene (SNCA) expression; conditions: HEK-293 SNCA-luciferase knock-in, luminescence, 24 h; activity change, negative = inhibition: at 57.2 µM (top of the series) unless noted; also: nearly all actives have a fitted effect of over 45% in size;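 as to activity change, negative = inhibition: plate controls were DMSO cells for no effect and cell-free wells for full effect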
Potency is read from the fitted curve at half-maximal effect; tags tell the direction and shape of the fitted curve.

Compound	Potency	activity change, negative = inhibition
CN(C)c1ccc(C(=O)N[C@H]2C[C@H]3C(=O)NC[C@@H](CCC(=O)N4CCc5ccccc54)N3C2)cc1	inconclusive: 5.01 µM [inhibitor, single point]	–
COC(=O)CN1C(=O)[C@@H]2C[C@@H](O)CN2C2(CN(C3CCN(C(C)=O)CC3)C2)C1=O	–	inactive: -21.6% [at 87.6 µM]
COc1ccc(CNC(=O)C2CCCN(c3nccc(Nc4ccc(C)cc4)n3)C2)cc1 (stereo not given)	inconclusive: 39.8 µM [inhibitor, single point]	–
Cc1cc(S(=O)(=O)Nc2ccc(C(=O)O)cc2)c(C)c(S(=O)(=O)c2ccc(Cl)cc2)c1	inconclusive: 2.82 µM [inhibitor, single point]	–
CC1(COCC2CC2)COc2ccc(C(=O)NCc3ccccc3)cc2N1 (stereo not given)	–	inactive: -3.22% [at 87.6 µM]
COc1ccc(Cn2ccc3nc(C)c(C(=O)N4CCN(c5ccc(OC)cc5)CC4)cc3c2=O)cc1	inconclusive: 39.8 µM [inhibitor, single point]	–
COCCC1(NC(=O)C2CCOCC2)CCN(C(=O)C2CCCCC2)CC1	–	inactive: -5.29%
CN1[C@@H](CCC(=O)NCc2ccco2)CNC(=O)[C@@H]2[C@H]1CCN2Cc1nc2ccccc2n1C	inconclusive: 25.1 µM [inhibitor, single point]	–
COCCNC(=O)C[C@@H]1O[C@H](CNCc2cccc(Cl)c2)[C@@H](O)[C@H]1O	inconclusive: 12.6 µM [inhibitor, single point]	–
CCC(C)NC(=O)N1CCC2(CC1)CN(Cc1ccc(OC)cc1)C2=O (stereo not given)	–	inactive: -0.593%
CCCNC(=O)C1CC(=O)N(c2n[nH]c3cccc(F)c23)C1 (stereo not given)	inconclusive: 39.8 µM [inhibitor, single point]	–
COCC1(O)CCOC2(CCN(C(=O)c3cccs3)CC2)C1 (stereo not given)	–	inactive: -5.61%
COc1cccc(CN2CCn3c(nnc3[C@@H]3C[C@@H](O)CN3Cc3cccnc3)C2)c1OC	inconclusive: 39.8 µM [inhibitor, single point]	–
CCOc1ccc(N(CC)C(=O)c2nn(-c3ccc(OC)cc3)c(=O)c3c2c2ccccc2n3C)cc1	inconclusive: 17.8 µM [inhibitor, single point]	–
Clc1ccc(C2Cn3nnc(-c4nc(C5CC5)no4)c3CO2)cc1 (stereo not given)	–	inactive: 10.3%
O=C(c1ccc(C(F)(F)F)cc1)N1CCc2nc(C3CC3)nc(-c3ccc(Cl)cc3)c2C1	inconclusive: 8.91 µM [inhibitor, partial curve, poor fit]	–
COc1ccc(-c2c(C)nn3c(C(F)(F)F)cc(-c4ccccc4)nc23)cc1	inconclusive: 5.01 µM [inhibitor, full curve, poor fit]	–
CCCCCCCCCCCCCCCCC(C(=O)O)C(O)(CC(=O)O)C(=O)O (stereo not given)	–	inactive: 31% [at 25.6 µM]
CCOc1ccc(NC(=O)c2nnn3c2COC(c2ccc(Cl)cc2)C3)cc1 (stereo not given)	inconclusive: 3.16 µM [inhibitor, single point]	–
O=C([C@H]1C[C@H](Oc2cccnc2)CN1C(=O)NC1CCCCC1)N1CCOCC1	inconclusive: 8.91 µM [inhibitor, single point]	–

Compound	Potency	activity change, negative = inhibition
COc1ccccc1N1CCN(C(=O)CCc2conc2-c2cccc(F)c2)CC1	inconclusive: 3.16 µM [inhibitor, partial curve, poor fit]	–
COc1cc(OC)cc(C(=O)NCC2CCCN(C/C=C/c3ccccc3OC)C2)c1 (stereo not given)	inconclusive: 44.7 µM [inhibitor, partial curve, poor fit]	–
Cc1ccc(OCC(=O)N2CCC(c3nn(C)c4c3COCC4)CC2)cc1	–	inactive: 1.65%
Cc1cccc(CNC(=O)c2ccc3oc(=O)n(Cc4ccccc4)c3c2)c1	inconclusive: 0.158 µM [inhibitor, single point]	–
CCC(CC)NC(=O)CC1CCCN(c2cnn(CC3CC3)c(=O)c2)C1 (stereo not given)	–	inactive: -19.6%
CCS(=O)(=O)c1ncc(Cl)c(C(=O)Nc2c(C(=O)Nc3cccc(C)c3)oc3ccccc23)n1	–	inactive: 19.1%
CCc1ccccc1NC(=O)Cc1ccc(NC(=O)N2CCCCc3ccccc32)cc1	inconclusive: 39.8 µM [inhibitor, single point]	–
COCCCNC(=O)C1(C)CN(Cc2ccccc2)Cc2ccc(NCC(C)C)nc21 (stereo not given)	inconclusive: 15.8 µM [inhibitor, partial curve]	–
Cc1ccc(C2Cn3nnc(C(=O)N4CCN(C(=O)c5ccsc5)CC4)c3CO2)cc1 (stereo not given)	inconclusive: 22.4 µM [inhibitor, partial curve, poor fit]	–
CCOC(=O)C1=C(C)NC(C)=C(C(=O)OC)C1c1cccc([N+](=O)[O-])c1 (stereo not given)	inconclusive: 39.8 µM [inhibitor, single point]	–
COc1ccc(CCC(=O)N2CCC(N3C(=O)C(O)C34CCCCC4)CC2)cc1 (stereo not given)	inconclusive: 1.78 µM [inhibitor, single point]	–
Cc1cccc2[nH]c(COCC(=O)N3CCc4c(nc[nH]c4=O)C3)nc12	inconclusive: 39.8 µM [inhibitor, single point]	–
CCCn1cc(-c2ccncc2)cc1C(=O)NCc1ccc(C)o1	inconclusive: 2.24 µM [inhibitor, partial curve, poor fit]	–
Cc1ccc(C(=O)N2C[C@H](c3nc(-c4cccnc4)no3)[C@@H](C)C2)c(C)c1	–	inactive: 26.7%
CC(=O)Nc1ccccc1-c1c(C)nn2c1N(CCC(C)C)CCC2	inconclusive: 6.31 µM [inhibitor, full curve, poor fit]	–
CC1Cc2ccccc2N1S(=O)(=O)c1nnc(NC(=O)c2cccc(F)c2)s1 (stereo not given)	–	inactive: -8.55%
Cc1ccc(NC(=O)c2cc(S(=O)(=O)NC3CCCCC3)ccc2F)cc1Cl	inconclusive: 39.8 µM [inhibitor, partial curve, poor fit]	–
CCCCn1cc(S(=O)(=O)c2ccc(C)c(C)c2)c(=O)c2cc(F)c(N(CC)CC)cc21	inconclusive: 7.94 µM [inhibitor, single point]	–
Cc1nn2c(c1-c1ccccc1OCc1ccccc1)N(C(=O)Cc1ccccc1)CCC2	inconclusive: 56.2 µM [inhibitor, single point]	–
Cc1cc(C)c(CNC(=O)c2cc(-c3ccccc3C)cc3c2OCCN3C(C)C)c(=O)[nH]1	inconclusive: 39.8 µM [inhibitor, partial curve, poor fit]	–
